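Following 48 hours of exposure in 96-well plates, responses at five concentrations were used to interpolate endpoints linearly. GI50 marks 50% less growth. At the TGI there is no net growth.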

In the assay the test system is NCI-H322M lung. The assay is described as follows: NCI-60 cell line screen, 48 h.
On to `CN1CCN(c2ccc3nc(-c4ccc5nc(-c6ccc(OCCC(C)(C)C)cc6)[nH]c5c4)[nH]c3c2)CC1`, for which the GI50 was 11.6 µM and the TGI is 23.8 µM.
Take `COc1ccc(-c2nc3ccccn3c2/C=C/C(=O)c2cc(OC)c(OC)c(OC)c2)cc1`: the GI50 was 4.63 µM and the TGI is greater than 100 µM.
`Cc1ccc(S(=O)(=O)OCC23CCC(CC2)C2CC23)cc1` (stereo not drawn) came in with a TGI greater than 100 µM.
Consider `C#CC1(O)C(COP(=O)(O)OCC2OC(n3ccc(NCCCCCCCCCCCCCCCCCC)nc3=O)C(O)C2O)OC(n2ccc(N)nc2=O)C1O` (stereo not drawn), for which the TGI was found to be 20.8 µM.
`Nc1nc(Cl)cc(NCCC2(CO)CCC2)n1` returned a TGI greater than 100 µM.
As to `O=C1/C(=C/c2ccc(Cl)cc2)N=C(c2ccccc2)N1CCc1cccs1`, the GI50 was 42.2 µM and the TGI is greater than 100 µM.
`COc1cc(COC(=O)N(CC(=O)O)c2ccccc2)c([N+](=O)[O-])cc1OC` showed a TGI greater than 100 µM.
The same measure, in the same setting: the same measure for `O=C(O)c1cccc(N=Nc2c(S(=O)(=O)O)ccc3c2C(=O)c2ccccc2C3=O)c1O`: greater than 100 µM.
Turning to `CCc1ccc2nc(-c3ccc(O)cc3)sc2c1`, the TGI stood at 38.3 µM.
The compound `N=C(N)SCc1ccc(Cl)cc1Cl` (tested in a mixture with another compound) displayed a TGI greater than 57.3 µM.
Compound `Nc1nc(N)c2ncn(Cc3ccccc3CCl)c2n1` yielded a TGI greater than 100 µM.
The compound `N#CCCN(CCC#N)c1ccc(/C=C2\N=C(c3ccccc3)N(NC(N)=S)C2=O)cc1` yielded a TGI greater than 100 µM.
Turning to `CN(C)c1nncc2[nH]cnc12`, the TGI is greater than 100 µM.
In turn, `COC1OC(COCc2ccc(Cl)cc2)C(OCc2ccc(Cl)cc2)C1N=[N+]=[N-]` (stereo not drawn) showed a TGI greater than 100 µM.
For `Cn1ccnc1C(=O)/C=C/c1ccccc1`, the GI50 was 7.01 µM and the TGI turned out to be 20.4 µM.
`CC(C)C(C)C(C)(C)P(C)(C)=O` (stereo not drawn) came in with a TGI greater than 100 µM.
For the compound `Cc1cccnc1/N=C/c1c(O)n(C)c(=O)[nH]c1=O`, the TGI was greater than 100 µM.
Take `COc1cc(Nc2ccnc(NCCCNc3ccnc4cc(Cl)ccc34)n2)cc(OC)c1`: the GI50 was 1.83 µM and the TGI amounted to 5.38 µM.
For `O=C1[C@@H]2[C@@H](c3ccccc3)[C@]2(Cl)C(=O)[C@H]2[C@H](c3ccccc3)[C@@]12Cl`, the TGI was greater than 100 µM.
In the case of `CC(=O)O[C@@H]1C2=C(C)C=C(O2)[C@H]2O[C@]2(C)C[C@H]2C=C(C(=O)O2)[C@H](OC(C)=O)CC1[C@@]1(C)CO1` (stereo partly drawn), the TGI was greater than 100 µM.
On to `CCOC(=O)Cc1nc2sc(S(N)(=O)=O)nn2c1Br`, for which the TGI was greater than 100 µM.
Consider `Nc1nc(-c2ccccc2)nc2c1[n+]([O-])c1ccccc1[n+]2[O-]`, for which the TGI is greater than 100 µM.
For `Cc1cc(N(CCNc2ccnc3cc(Cl)ccc23)Cc2ccco2)nc(Cl)n1`, the GI50 was 1.67 µM and the TGI was determined as 3.12 µM.
The compound `O=C(Cc1nccc2c1[nH]c1ccccc12)OC1C#CCSCC#C/C=C\1` (stereo not drawn) registered a TGI greater than 100 µM.
Turning to `COc1cc(C2=C(C#Cc3ccccc3)COC2=O)cc(OC)c1OC`, the GI50 was 18.5 µM and the TGI is greater than 100 µM.
`Cc1c2cnccc2c(C)c2c1c1ccccc1n2CCCCCCNCc1ccccc1` registered a TGI of 2.75 µM.
As to `O=C/C=C/c1ccco1`, the TGI was greater than 100 µM.
For `Cc1c(COc2cc(OCc3cccc(C#N)c3)c(CN3C[C@H](O)C[C@@H]3C(=O)O)cc2Cl)cccc1-c1ccc2c(c1)OCCO2`, the GI50 is 15.5 µM and the TGI worked out at 29.2 µM.
Turning to `CCOC(=O)NC(NC1=NCCS1)(C(=O)OCC)C(F)(F)F` (stereo not drawn), the TGI was greater than 100 µM.
Same read-out and setting: the same measure for `N#C/C(=C\c1cc(Cl)cc(Cl)c1)c1ccccn1`: greater than 100 µM; for `CNC(=O)N(C)COC`: greater than 100 µM.
`CC(=O)c1ccc(NC(=O)C(=O)Nn2c(=S)[nH]c3ccccc3c2=O)cc1` yielded a TGI greater than 100 µM.
In the case of `CN1C(=O)[C@@H]2[C@@H]3c4ccccc4N(S(=O)(=O)C(F)(F)F)[C@@H]3c3[nH]c4ccccc4c3[C@@H]2C1=O`, the TGI was greater than 100 µM.
With `O=[N+]([O-])c1c(Br)sc(Br)c1[N+](=O)[O-]`, the GI50 was 15.7 µM and the TGI turned out to be 30.9 µM.
In turn, `Cc1ccc(OC2CC(n3cnc4ncnc(Cl)c43)OC2Oc2ccc(C)cc2)cc1` (stereo not drawn) returned a TGI of 51.5 µM.
On to `CN1CCC(CN2c3ccccc3Sc3ccccc32)CC1`, for which the TGI is 28 µM.
With `C[C@@H](CO)[C@@H]1CCC=C2CC[C@]3(C)[C@H](CC[C@@H]4[C@@]5(C)CCCNC(C)(C)[C@@H]5CC[C@]43C)[C@H]21`, the GI50 is 3.55 µM and the TGI amounted to 12.7 µM.
Regarding `CC[C@@H](C(=O)[C@@H](C)[C@@H](O)[C@H](C)[C@@H]1O[C@@H]([C@@H](CC)C(=O)N(CC)CC)CC[C@@H]1C)C1O[C@]2(C=CC(=O)[C@]3(CC[C@@](C)([C@H]4CC[C@](O)(CC)[C@H](C)O4)O3)O2)[C@H](C)C[C@@H]1C` (stereo partly drawn), the GI50 is 3.3 µM and the TGI is greater than 100 µM.
For `O=C(CCC(=O)C(C(=O)c1ccccc1)c1ccccc1)Nc1cccc(C(F)(F)F)c1` (stereo not drawn), the TGI is greater than 100 µM.
`Cn1/c(=N\S(=O)(=O)c2ccccc2)n(S(=O)(=O)c2ccccc2)c2ccccc21`: the TGI is greater than 100 µM.
Still for that read-out and setting: to `C=C1CC/C=C(\C)C(=O)C[C@@H]2[C@@H]1CC2(C)C` belongs greater than 58.6 µM.
As to `CCNC(=O)c1cc2c(-c3cc(C(C)(C)O)ccc3Oc3c(C)cc(F)cc3C)cn(C)c(=O)c2[nH]1`, the GI50 is 1.71 µM and the TGI turned out to be 14.9 µM.
In the case of `Fc1ccc(Nc2nc3nonc3nc2Nc2ccc(F)cc2)cc1`, the GI50 was 0.452 µM and the TGI was determined as 10.4 µM.
`CC1(C)Cc2cc(C(=O)O)c3c(c2C1=O)COCC3` registered a TGI greater than 100 µM.
In turn, `O=c1[nH]c(Nc2cc(Cl)cc(Cl)c2)nc2nc[nH]c12` came in with a TGI greater than 75 µM.
Consider `O=C(Cn1ccnc1[N+](=O)[O-])c1ccc(F)cc1`, for which the TGI was greater than 100 µM.
For `Fc1ccc2nc3n(c2c1)C(c1c(Cl)cccc1Cl)SC3` (stereo not drawn), the TGI is greater than 100 µM.
As for `CCCCCCCCCCCCCC[S+](C)C`, the TGI is greater than 10 µM.
As for `CN(CC(=O)N(Cc1ccc(C2CCCCC2)cc1)c1ccc(C(=O)O)c(O)c1)S(=O)(=O)c1c(F)c(F)c(F)c(F)c1F`, the GI50 was 9.3 µM and the TGI worked out at 23.5 µM.
For `Nc1nc(-c2ccc(F)cc2)c(-c2ccc3ncccc3n2)s1`, the GI50 was 13.1 µM and the TGI is greater than 25 µM.
For `CCOC(=O)c1ccc(C(=O)/C(C(C)=O)=C2\CCCN2C)n1C`, the TGI is greater than 100 µM.
With `COc1cc(/C=C/C(=O)c2ccc(NC(=O)CN3CCN(c4cc5c(cc4F)c(=O)c(C(=O)O)cn5C4CC4)CC3)cc2)cc(OC)c1OC`, the GI50 was 0.505 µM and the TGI came to 4.19 µM.
As for `Cc1noc2nnn(-c3ccc(Cl)cc3)c(=O)c12`, the TGI turned out to be 24.2 µM.
In turn, `CSCCCNC(=O)c1csc(-c2csc(C(CNC(=O)OC(C)(C)C)CNC(=O)OC(C)(C)C)n2)n1` yielded a TGI greater than 100 µM.
The same measure, in the same setting: the same measure for `CCCCS(=O)(=O)CCC(N)C(=O)O` (stereo not drawn): greater than 100 µM.
Turning to `CC(=Nc1ccccc1)C1=C(O)C(Cc2ccccc2)NC1=O` (stereo not drawn), the GI50 is 0.0657 µM and the TGI is greater than 100 µM.
Regarding `COc1ccc(/C=C2\N=C(c3ccccc3)N(N=C3NC(=O)CC(=O)N3)C2=O)cc1`, the TGI was greater than 100 µM.
On to `CCCCN1C(=O)c2c(-c3sccc3N)sc(-c3sccc3N)c2C1=O`, for which the TGI is greater than 100 µM.
`C=C1CCC2C(C)(C)CCC[C@]2(C)[C@H]1CO` (stereo partly drawn): the GI50 was greater than 100 µM and the TGI was greater than 100 µM.
`NCCCNC1(c2cc3ccccc3s2)CCCCC1` showed a TGI of 21.1 µM.

For the origin of these results see PubChem BioAssay (NCI).
